# From the supplement of paper PMC8728848
# This is one part of the list.
# B1: CaSRK1 (Capsicum annuum) (protein)
# chain: MALCKIFPFAFILLSCSCYLISGQRFDYPTANLSTTWINSVSAPHSIDYTDGSRIRAILLRGTFGPRYACGFYCNGNCESYLFAIFIVQTNSASQITSPAIGFPQVVWSANRNNPVKINSTLQLTAEGDLVLRDADGTLAWSTNTAGKSVAGLSLTDEGNLALFDSKNATVWQSFDHPTDALVPGQKLVPGMKLTASVSRTNWTAGGLFALSAIDNGLVAFVESNPPQKYFEASVGGSNTSGGSNYVKYLNGSLTLFTHSADTTELILISITPASSAQYMKLESNGHLKVYEWTSRGWREVDDLLTGFRGECNYPTVCGRYGICTMGQCSCPTSSSSRTYFRPIDVRRPSLGCSEVTKLTCQNTKKHSPLEVEDVDYFAFKAGISDTDLNTCKRACLEKCSCKAAFFRSGLNSSRTRGDCYLPTEIFSIMNNEKDRTRYDSVAFIKVQV
# How the values were obtained:
# Assay in all cases: glycan array binding signal (z-score within array); higher = stronger binding
# Settings in all cases: glycan notation: IUPAC condensed, linker removed
# [1] = molecular target: GalNAc(b1-3)Gal(a1-4)Gal(b1-4)GlcNAc
# Procedure, shortened: (§1)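 The binding signal is a Z-score computed within each array and averaged over linkers. Arrays of the same protein sequence at different concentrations or buffers were also averaged together. Data originate from 3228 arrays in the Consortium for Functional Glycomics database, kept only where the protein sequence was available.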
# [2] = molecular target: GalNAc(b1-3)Gal(a1-4)Gal(b1-4)GlcNAc(b1-3)Gal(b1-4)Glc
# Procedure, shortened: as §1
# [3] = molecular target: GalNAc(b1-3)Gal(a1-6)Gal(b1-4)Glc
# Procedure, shortened: as §1
# [4] = molecular target: GalNAc(b1-3)GalNAc
# Procedure, shortened: as §1
# [5] = molecular target: GalNAc(b1-3)GlcNAc
# Procedure, shortened: as §1
# [6] = molecular target: GalNAc(b1-4)Gal(b1-4)Glc
# Procedure, shortened: as §1
# [7] = molecular target: GalNAc(b1-4)GlcNAc
# Procedure, shortened: as §1
# [8] = molecular target: GalNAc(b1-4)GlcNAc(b1-2)Man
# Procedure, shortened: as §1
# [9] = molecular target: GalNAc(b1-4)GlcNAc(b1-2)Man(a1-3)[GalNAc(b1-4)GlcNAc(b1-2)Man(a1-6)]Man(b1-4)GlcNAc(b1-4)GlcNAc
# Procedure, shortened: as §1
# [10] = molecular target: GalNAc(b1-4)GlcNAc(b1-3)GalNAc(b1-4)GlcNAc
# Procedure, shortened: as §1
# [11] = molecular target: GalNAc(b1-4)GlcNAc6S
# Procedure, shortened: as §1
# [12] = molecular target: GalNAc(b1-6)GalNAc
# Procedure, shortened: as §1
# [13] = molecular target: GalNAc3S(b1-4)GlcNAc
# Procedure, shortened: as §1
# [14] = molecular target: GalNAc3S(b1-4)GlcNAc3S
# Procedure, shortened: as §1
# [15] = molecular target: GalNAc3S(b1-4)[Fuc(a1-3)]GlcNAc
# Procedure, shortened: as §1
# [16] = molecular target: GalNAc4S6S(b1-4)GlcNAc
# Procedure, shortened: as §1
# [17] = molecular target: GalNAc6S(b1-4)GlcNAc
# Procedure, shortened: as §1
# [18] = molecular target: Glc(a1-4)Glc
# Procedure, shortened: as §1
# [19] = molecular target: Glc(a1-4)Glc(a1-4)Glc(a1-4)Glc
# Procedure, shortened: as §1
# [20] = molecular target: Glc(a1-6)Glc(a1-6)Glc
# Procedure, shortened: as §1
# [21] = molecular target: Glc(a1-6)Glc(a1-6)Glc(a1-6)Glc
# Procedure, shortened: as §1
# [22] = molecular target: Glc(b1-4)Glc
# Procedure, shortened: as §1
# [23] = molecular target: Glc(b1-6)Glc
# Procedure, shortened: as §1
# [24] = molecular target: GlcA(b1-3)Gal
# Procedure, shortened: as §1
# [25] = molecular target: GlcA(b1-3)GlcNAc
# Procedure, shortened: as §1
# [26] = molecular target: GlcA(b1-6)Gal
# Procedure, shortened: as §1
# [27] = molecular target: GlcA3S(b1-3)Gal(b1-4)GlcNAc(b1-2)Man
# Procedure, shortened: as §1
# [28] = molecular target: GlcA3S(b1-3)Gal(b1-4)GlcNAc(b1-3)Gal(b1-4)Glc
# Procedure, shortened: as §1
# [29] = molecular target: GlcNAc(a1-3)Gal(b1-4)GlcNAc
# Procedure, shortened: as §1
# [30] = molecular target: GlcNAc(a1-4)Gal(b1-3)GlcNAc
# Procedure, shortened: as §1
# [31] = molecular target: GlcNAc(a1-4)Gal(b1-4)GalNAc
# Procedure, shortened: as §1
# [32] = molecular target: GlcNAc(a1-4)Gal(b1-4)GlcNAc
# Procedure, shortened: as §1
# [33] = molecular target: GlcNAc(a1-4)Gal(b1-4)GlcNAc(b1-3)Gal(b1-4)Glc
# Procedure, shortened: as §1
# [34] = molecular target: GlcNAc(a1-4)Gal(b1-4)GlcNAc(b1-3)Gal(b1-4)GlcNAc
# Procedure, shortened: as §1
# [35] = molecular target: GlcNAc(a1-4)Gal(b1-4)GlcNAc(b1-3)Gal(b1-4)GlcNAc(b1-3)Gal(b1-4)GlcNAc
# Procedure, shortened: as §1
# [36] = molecular target: GlcNAc(a1-4)Gal(b1-4)GlcNAc(b1-3)Gal(b1-4)[Fuc(a1-3)]GlcNAc(b1-3)Gal(b1-4)[Fuc(a1-3)]GlcNAc
# Procedure, shortened: as §1
# [37] = molecular target: GlcNAc(a1-6)Gal(b1-4)GlcNAc
# Procedure, shortened: as §1
# [38] = molecular target: GlcNAc(b1-2)Gal(b1-3)GalNAc
# Procedure, shortened: as §1
binder,measurement,setting,value
B1,glycan array binding signal (z-score),[1],-0.291
same,glycan array binding signal (z-score),[2],0.694
same,glycan array binding signal (z-score),[3],0.166
same,glycan array binding signal (z-score),[4],-0.529
same,glycan array binding signal (z-score),[5],-0.191
same,glycan array binding signal (z-score),[6],1.01
same,glycan array binding signal (z-score),[7],-0.168
same,glycan array binding signal (z-score),[8],-0.561
same,glycan array binding signal (z-score),[9],0.55
same,glycan array binding signal (z-score),[10],0.837
same,glycan array binding signal (z-score),[11],0.352
same,glycan array binding signal (z-score),[12],-0.507
same,glycan array binding signal (z-score),[13],-0.288
same,glycan array binding signal (z-score),[14],-0.497
same,glycan array binding signal (z-score),[15],-0.511
same,glycan array binding signal (z-score),[16],0.173
same,glycan array binding signal (z-score),[17],-0.411
same,glycan array binding signal (z-score),[18],-0.288
same,glycan array binding signal (z-score),[19],0.933
same,glycan array binding signal (z-score),[20],-0.21
same,glycan array binding signal (z-score),[21],0.961
same,glycan array binding signal (z-score),[22],0.369
same,glycan array binding signal (z-score),[23],0.326
same,glycan array binding signal (z-score),[24],-0.496
same,glycan array binding signal (z-score),[25],1.42
same,glycan array binding signal (z-score),[26],-0.332
same,glycan array binding signal (z-score),[27],-0.588
same,glycan array binding signal (z-score),[28],-0.508
same,glycan array binding signal (z-score),[29],-0.273
same,glycan array binding signal (z-score),[30],-0.005
same,glycan array binding signal (z-score),[31],-0.474
same,glycan array binding signal (z-score),[32],-0.534
same,glycan array binding signal (z-score),[33],-0.576
same,glycan array binding signal (z-score),[34],-0.575
same,glycan array binding signal (z-score),[35],-0.411
same,glycan array binding signal (z-score),[36],-0.412
same,glycan array binding signal (z-score),[37],-0.273
same,glycan array binding signal (z-score),[38],-0.097
